The source of these data is ChEMBL document CHEMBL4888484, “Replenishing the malaria drug discovery pipeline: Screening and hit evaluation of the MMV Hit Generation Library 1 (HGL1) against asexual blood stage Plasmodium falciparum ,using a nano luciferase reporter read-out” (2022).

The campaign covered roughly 150,000 compounds. About 540 (0.36%) showed an effect of 50% or more. The list shows a part of the results.

The assay relates to Plasmodium falciparum. Put plainly: Primary screen in NF54 nanoGlo assay, in single point, at 2uM, 72h; a lower Z score goes with more inhibition. The format is functional, Erythrocyte. The conditions noted are these: timepoint 72 hour.
In general, % Inhibition refers to the change of the read-out against control, counted positive when it falls. `CC(C)CS(=O)(=O)C1CN(C(=O)Cc2noc3ccccc23)C1`: the “% Inhibition” value was -12% and the Z score is 1.5.

Turning to `O=S(=O)(Nc1cc(-c2nc[nH]n2)ccc1F)c1cncc(Cl)c1`, the “% Inhibition” value is reported as -1% and the Z score was 0.14.

As to `COC[C@H](C)C1CCN(C(=O)c2nc3ccccc3[nH]2)CC1`, the “% Inhibition” value is given as -10% and the Z score was 1.47.

As for `CC(C)c1ccc2c(c1)CC[C@H]1[C@](C)(CNC(=O)c3n[nH]c4c3CCCC4)CCC[C@]21C`, the “% Inhibition” value is listed as -8% and the Z score was determined as 0.98.

In the case of `COC[C@H]1[C@@H](NC(=O)c2cccnc2OC)[C@H]2CCO[C@H]21`, the “% Inhibition” value is -1% and the Z score amounted to 0.12.

As for `O=C(NCCn1cnc(-c2ccccc2)cc1=O)c1cc(N2CCCC2)ncn1`, the “% Inhibition” value is given as -16% and the Z score is given as 2.68.

Consider `O=C(CCc1ccccc1)N1CCc2n[nH]c(=O)n2CC1`, for which the “% Inhibition” value was -4% and the Z score came out at 0.47.

For `COc1cccc([C@H]2C[C@@H]2C(=O)N(C)CC(=O)NC2CC2)c1`, the “% Inhibition” value is listed as -8% and the Z score came to 0.93.

Consider `CCC(CC)Nc1ccncc1NC(=O)c1ccnc2ccnn12`, for which the “% Inhibition” value came to 0% and the Z score was -0.05.

`CCCc1cnc(NCc2cnc3cnccn23)s1`: the “% Inhibition” value was -7% and the Z score worked out at 1.27.

In the case of `CCc1ccc(CNC(=O)[C@H]2CCCN(c3cc(=O)n(C)c(=O)n3CC)C2)cc1`, the “% Inhibition” value is reported as -2% and the Z score was 0.3.

Take `N#Cc1ccc(N2CC[S+]([O-])CC2)c(F)c1`: the “% Inhibition” value is -10% and the Z score is 1.26.

Turning to `CC1(C)CN(Cc2nnc(C3CC3)o2)CCN1Cc1ccccc1`, the “% Inhibition” value is on record as -3% and the Z score was found to be 0.43.

As for `CCCCNC(=O)c1nn[nH]c1-c1ccccc1O`, the “% Inhibition” value is 1% and the Z score is -0.14.

`CCc1nc(C)nc(N2CCN(C[C@H](O)C(C)C)CC2)c1Cc1ccc(C)cc1`: the “% Inhibition” value is recorded as -6% and the Z score is given as 1.06.

`Cc1ocnc1-c1noc(CC(C)C)n1`: the “% Inhibition” value is on record as 7% and the Z score is -0.79.

Take `COCc1noc(CN(C)Cc2noc(C3CC3)n2)n1`: the “% Inhibition” value was -3% and the Z score amounted to 0.6.

As for `Cc1ccc(NC(=O)N2CC[C@H](N(CCN3CCCC3)S(=O)(=O)N(C)C)C2)cc1F`, the “% Inhibition” value is 35% and the Z score is recorded as -3.95.

Take `CC(C)c1cc(C(=O)N2C[C@H](NS(=O)(=O)N(C)C)[C@@H](C(C)C)C2)no1`: the “% Inhibition” value is -4% and the Z score is 0.79.

Turning to `Cc1ncsc1CCC(=O)NCCN1CCNC1=O`, the “% Inhibition” value stood at 9% and the Z score is -1.52.

Consider `CCC(C)C1NC2(CCN(C(=O)Nc3cccc(Cl)c3)CC2)N(CCc2ccc(OC)c(OC)c2)C1=O` (stereo unspecified), for which the “% Inhibition” value was 3% and the Z score is -0.32.

With `COc1ccc(NC(=O)Cn2cnc3nc(N4CCCC4)ncc3c2=O)c(OC)c1`, the “% Inhibition” value was found to be 33% and the Z score is on record as -3.7.

For `Cc1noc(COC(=O)c2ccc(-c3cscn3)cc2)n1`, the “% Inhibition” value was -10% and the Z score is recorded as 1.84.

Consider `Cc1cc(NC(=O)N2CCN(C(=O)Cc3c[nH]c4ccccc34)CC2)n(C)n1`, for which the “% Inhibition” value is -5% and the Z score worked out at 0.48.

With `C[C@@H](CNC(=O)C(Cl)(Cl)Cl)OC(=O)Nc1cccc(Cl)c1`, the “% Inhibition” value is 10% and the Z score is -1.79.

On to `N[C@@H](Cc1ccc(O)cc1)C(=O)N1CCc2[nH]nc(-c3ccccc3F)c2C1`, for which the “% Inhibition” value is recorded as 10% and the Z score was -1.39.

In the case of `CCN1C[C@@H](Oc2ccccc2)C[C@H]1C(N)=O`, the “% Inhibition” value is recorded as -5% and the Z score is 0.72.

Consider `Fc1ccc(COc2ncnc3scc(-c4ccccc4)c23)c(Cl)c1`, for which the “% Inhibition” value is given as -11% and the Z score is given as 1.88.

Turning to `CN(C)c1ccccc1N(C)Cc1ccon1`, the “% Inhibition” value stood at 2% and the Z score is -0.36.

`FC(F)(F)c1ccc(-c2noc(-c3cc4n(n3)C[C@@H](c3ccc5c(c3)OCO5)OC4)n2)cc1`: the “% Inhibition” value is reported as -4% and the Z score amounted to 0.41.

`C[C@H]1CCCN(Cn2nc(C3CC3)sc2=S)CC1`: the “% Inhibition” value is -2% and the Z score amounted to 0.26.

On to `CCc1nc(N2CCC[C@H](c3nnc(CN4CCCCC4)n3C)C2)no1`, for which the “% Inhibition” value is listed as -3% and the Z score was determined as 0.45.

Take `CC[C@H](NC(=O)C1CCOCC1)c1ccc(C)cn1`: the “% Inhibition” value was 1% and the Z score is listed as -0.12.

With `O=C(CCNC(=O)N1CC2CC=CCC2C1)NC1CCCC1` (stereo unspecified), the “% Inhibition” value is given as -5% and the Z score is 0.53.

Consider `O=C(O)[C@@H]1C[C@@H](O)CN1CCCCc1ccccc1`, for which the “% Inhibition” value turned out to be 0% and the Z score was -0.03.

As for `CN(C)c1ccc(C(=O)Nc2ccc(CCc3nc4ccccc4[nH]3)cc2)cc1`, the “% Inhibition” value was -11% and the Z score is on record as 1.09.

For `Cc1cccc2oc(CNC(=O)[C@H]3CCC[C@H](O)C3)nc12`, the “% Inhibition” value is recorded as -3% and the Z score stood at 0.7.

Turning to `Cc1cc(=O)[nH]c(NC(=N)N2CCc3ccccc32)n1`, the “% Inhibition” value is -17% and the Z score is on record as 2.98.

For `COc1ccc(N2CCN(C(=O)Cn3cc(OC)c(=O)cc3CN3CCOCC3)CC2)cc1`, the “% Inhibition” value is listed as -8% and the Z score amounted to 0.85.

For `COc1ncccc1C(=O)NCc1nc(-c2cnn(C)c2)no1`, the “% Inhibition” value is given as 0% and the Z score is recorded as 0.01.

For `Brc1ccc(-n2cnnn2)c2ncccc12`, the “% Inhibition” value was determined as 3% and the Z score is listed as -0.41.

`Cc1ccc(C)c(OCC(=O)N[C@H]2CCCC[C@@H]2NC(=O)COc2cc(C)ccc2C)c1`: the “% Inhibition” value is -6% and the Z score stood at 0.69.

In the case of `CN1CCC2(CCCN(C(=O)C(=O)c3ccco3)CC2)CC1`, the “% Inhibition” value was -8% and the Z score worked out at 1.16.
